This note sets out measurements from the supplement of paper PMC3334620.

Over roughly 33,000 sequences, “E-score (-0.5 to 0.5)” has its median near -0.011; the highest 2% begin near 0.28. The list shows a part of the results.

This test deals with T1, Gcr1 (UniProt P07261).
T1 sequence: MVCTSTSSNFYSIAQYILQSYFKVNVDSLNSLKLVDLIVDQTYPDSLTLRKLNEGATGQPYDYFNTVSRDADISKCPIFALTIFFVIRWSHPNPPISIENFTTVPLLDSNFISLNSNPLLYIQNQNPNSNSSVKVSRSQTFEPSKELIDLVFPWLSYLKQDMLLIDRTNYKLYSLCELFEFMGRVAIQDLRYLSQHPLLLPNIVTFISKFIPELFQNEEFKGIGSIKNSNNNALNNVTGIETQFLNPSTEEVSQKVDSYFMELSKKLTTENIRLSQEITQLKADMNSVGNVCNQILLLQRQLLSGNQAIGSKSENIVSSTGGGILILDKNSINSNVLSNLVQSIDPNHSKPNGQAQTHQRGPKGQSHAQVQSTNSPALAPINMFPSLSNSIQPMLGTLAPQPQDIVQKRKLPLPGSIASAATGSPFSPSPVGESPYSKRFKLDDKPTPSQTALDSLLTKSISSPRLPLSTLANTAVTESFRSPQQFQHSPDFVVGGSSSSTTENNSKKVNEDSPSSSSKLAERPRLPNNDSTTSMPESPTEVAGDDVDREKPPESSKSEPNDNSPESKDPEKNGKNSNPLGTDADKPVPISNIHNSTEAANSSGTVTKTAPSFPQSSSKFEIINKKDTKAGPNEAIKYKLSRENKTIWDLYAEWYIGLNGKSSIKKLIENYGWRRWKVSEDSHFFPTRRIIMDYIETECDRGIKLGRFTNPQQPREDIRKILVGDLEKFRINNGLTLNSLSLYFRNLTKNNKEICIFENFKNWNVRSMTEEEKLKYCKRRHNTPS
The test can be described thus: PBM E-score (8-mer binding enrichment) (E-score (-0.5 to 0.5)); higher = stronger / more preferred TF binding; most listed sequences are background and not binding sites. The note with it: protein concentration: 100 nM; construct: GST-full length. Here is the method: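 Universal 'all 10-mer' protein binding microarrays (Agilent AMADID 015681) probed with GST-tagged S. cerevisiae TFs (full-length or DBD) made by in vitro transcription/translation (PURExpress), about 100-200 nM. Bound TF was detected with fluorescent anti-GST. Each ungapped 8-mer (which stands for itself and its reverse complement) is scored by the PBM enrichment score (E-score), a modified Wilcoxon-Mann-Whitney statistic from -0.5 to +0.5, computed with the Universal PBM Analysis Suite. Scale: above 0.35 generally sequence-specific binding.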
In the case of AAACGCGA, the “PBM E-score” value came to 0.0977.

Turning to ATCGCCAT, the “PBM E-score” value came to 0.0406.

On to ATCCGCTC, for which the “PBM E-score” value stood at 0.0142. Consider GGCTACTA, for which the “PBM E-score” value is 0.219. For CTCGATGC, the “PBM E-score” value came to 0.0719.

With CATATCTC, the “PBM E-score” value was -0.117.

On to CACTCCGC, for which the “PBM E-score” value was -0.03. For the sequence ACTTTCAG, the “PBM E-score” value was 0.146. For GCACTCCA, the “PBM E-score” value worked out at 0.0798. For GCCGAGAC, the “PBM E-score” value was -0.178.

Regarding CAGACAGA, the “PBM E-score” value worked out at 0.105. For CATCCCAA, the “PBM E-score” value worked out at 0.157. As to GGTACGAC, the “PBM E-score” value is 0.0145.

In the case of ACGATCAT, the “PBM E-score” value was -0.153. For the sequence GTCGGCAC, the “PBM E-score” value is -0.0231. Consider ACGAATGC, for which the “PBM E-score” value was found to be 0.0335. Consider ACTTTTCA, for which the “PBM E-score” value was 0.0489. As for CCACTGGG, the “PBM E-score” value worked out at 0.0562. For the sequence CCTTTGTA, the “PBM E-score” value was -0.145. In the case of AGGCAATC it was -0.245; in that of AGCCCAAT, 0.0294; in that of ATCGCTTG, -0.125.

Consider CGGGATCA, for which the “PBM E-score” value was 0.245. On to AAGTACGT, for which the “PBM E-score” value was found to be 0.0204. CAGGGTAA: the “PBM E-score” value is -0.0675.

For the sequence CCTACTAG, the “PBM E-score” value was -0.0738.

For the sequence CAGGATCA, the “PBM E-score” value is -0.179.

On to CGCGGACC, for which the “PBM E-score” value is -0.0237. In the case of GGTCAAGA, the “PBM E-score” value is -0.126. As for AGTGGATC, the “PBM E-score” value turned out to be 0.286. In the case of ATATGGCG it was 0.0803; in that of CGGACATC, -0.115. Regarding CGCCGAAA, the “PBM E-score” value turned out to be 0.0678. Take TATGGAAA: the “PBM E-score” value worked out at 0.11. Regarding CACGTGAA, the “PBM E-score” value was -0.183.

AGCACACG: the “PBM E-score” value was found to be 0.0528. With AAAATAAC, the “PBM E-score” value was 0.0829. Under CGCAAGAG stands -0.122. Turning to ACGGTACT, the “PBM E-score” value was -0.17. Under GGATAGAC stands -0.167. As for GGGGCTAC, the “PBM E-score” value was -0.0272. Under ACCTACAT stands 0.0339.

Take AAACACAC: the “PBM E-score” value amounted to 0.115. In the case of AAGCGATC it was -0.135; in that of TAATCCTA, -0.0173. Consider AACATGAT, for which the “PBM E-score” value is -0.0565. Under CACGAACC stands 0.0284. Under CAAGAAGA stands 0.354; under AAGAGTGT, -0.0692. On to AAAACCCG, for which the “PBM E-score” value was 0.108. CTATTCAC: the “PBM E-score” value is 0.144. CAGCAATC: the “PBM E-score” value was -0.0724. In the case of TGGTACCA it was 0.0139; in that of ACGACATG, -0.0755.

ACATCACT: the “PBM E-score” value turned out to be 0.0558. On to CATCAACG, for which the “PBM E-score” value worked out at 0.00203. Consider GATAGGAC, for which the “PBM E-score” value is -0.026. Under GGGTTAGA stands -0.142; under CTGACAGC, 0.0553; under CTCGCACA, -0.0353. As to GCTGGGGA, the “PBM E-score” value is -0.145. Under GCATTACA stands -0.0224; under CAAAAACC, 0.115; under GGCCAAGA, -0.0957. In the case of CGTGAGAG, the “PBM E-score” value is -0.241.

On to CCCTGCAG, for which the “PBM E-score” value was -0.00869. CCTTCACG: the “PBM E-score” value was -0.0299. As to AACTAAGT, the “PBM E-score” value stood at 0.0546. Take CGTTTTGC: the “PBM E-score” value was 0.0543. In the case of ATGTGTCC, the “PBM E-score” value was -0.156. On to GGCTGGAA, for which the “PBM E-score” value is -0.0155. Under CCAAAGTC stands 0.0913; under ACGAGTTG, 0.0727. On to ACGCGTTA, for which the “PBM E-score” value was -0.0814. In the case of GTTTATCA it was 0.103; in that of ACCGAGCA, -0.142; in that of ACTCGCCA, -0.204. Under ATCACCGC stands 0.00572. As to AGTTAGAT, the “PBM E-score” value was -0.153.

Consider AGAGACTG, for which the “PBM E-score” value was -0.163. Consider GGAATGCA, for which the “PBM E-score” value was 0.129.

CGCGCGGA: the “PBM E-score” value was -0.0886. Consider CTCGCCTC, for which the “PBM E-score” value was -0.252. As for CTGCTCGC, the “PBM E-score” value was -0.089. As to CTGGATAC, the “PBM E-score” value came to 0.135. For the sequence CTTAGAAA, the “PBM E-score” value stood at 0.0884.
